Results as given in PubChem BioAssay (NCATS).
Values joined by “and” are separate entries in the source; they are usually repeats but may differ in a detail not shown here. Equal values may be shown once. The inconclusive results got no clear call from the source; some entries with a clear call stand among them for comparison. For part of these data: Potencies beside an inconclusive call are fits to weak or partial responses and may not hold up. Active and inactive are the calls of the source. Unless noted, the call rests on the fitted dose curve; in most records, active means well fitted curve in the direction sought with a large enough effect; inconclusive means small, poorly fitted or top-dose-only effect, or another doubt; inactive means no such curve, though single readings can be large; an effect the other way counts as inactive or inconclusive.

Experiments:
[1] = qHTS for Inhibitors of Plasmodium falciparum (GB4) proliferation (AID 504315); further: nearly all actives have a fitted effect of over 50% in size; further: potency means the concentration at half of the fitted maximal effect;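 on activity change, negative = inhibition: 0% = DMSO vehicle and -100% = 0.29 µM artemisinin control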; settings: P. falciparum GB4 in erythrocytes, SYBR Green DNA, 72 h; activity change, negative = inhibition: at 6.7 µM (top of the series)
Summary of the method: (§1)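 Erythrocytes infected with P. falciparum line (0.3% parasitemia, 2.5% hematocrit final) incubated with compounds 72 h at 37 °C, 5% CO2; SYBR Green lysis buffer added, fluorescence read next day. Normalized to 0.29 uM artemisinin and DMSO.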

[2] = qHTS for Inhibitors of Plasmodium falciparum (HB3) proliferation (AID 504318); further: nearly all actives have a fitted effect of over 60% in size; further: potency means the concentration at half of the fitted maximal effect;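 on activity change, negative = inhibition: 0% = DMSO vehicle and -100% = artemisinin control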; settings: P. falciparum HB3 in erythrocytes, SYBR Green DNA, 72 h; activity change, negative = inhibition: at 7.21 µM (top of the series)
Summary of the method: as §1

[3] = molecular target: Cytochrome P450 2C9 (Homo sapiens) (UniProt P11712); test: qHTS Assay for Inhibitors and Substrates of Cytochrome P450 2C9 (AID 883); settings: recombinant CYP2C9, luciferin-H luminescence, 60 min; activity change, negative = inhibition: at 57.1 µM (top of the series); further: potency means the concentration at half of the fitted maximal effect; nearly all actives have a fitted effect of over 60% in size
Summary of the method: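 10nM CYP2C9 + 100uM Luciferin-H (=KM), 25mM KPO4; cpd 10 min 37C; NADPH regen, 60 min 37C; stop/detect with P450 Glo-Buffer 20 min; luminescence. Norm. to 57uM sulphaphenazole as full inhibition.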

[4] = molecular target: Cytochrome P450 2C19 (Homo sapiens) (UniProt P33261); test: qHTS Assay for Inhibitors and Substrates of Cytochrome P450 2C19 (AID 899); settings: recombinant CYP2C19, luciferin-H EGE luminescence; series mostly up to 11.4 µM; further: potency means the concentration at half of the fitted maximal effect; nearly all actives have a fitted effect of over 60% in size
Summary of the method: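 Luminescent read-out of luciferin formed from Luciferin-H EGE (10uM, equal to KM). Enzyme 5nM in 50mM KPO4; compound added, 10 min at 37C, then NADPH regenerating system for 60 min at 37C. Full inhibition defined by 57uM ketoconazole.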

[5] = qHTS for Inhibitors of Plasmodium falciparum (7G8) proliferation (AID 504316); further: nearly all actives have a fitted effect of over 65% in size; further: potency means the concentration at half of the fitted maximal effect;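 on activity change, negative = inhibition: 0% = DMSO vehicle and -100% = 0.29 µM artemisinin full kill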; settings: P. falciparum 7G8 in erythrocytes, SYBR Green DNA, 72 h; activity change, negative = inhibition: at 6.7 µM (top of the series)
Summary of the method: as §1

[6] = qHTS for Inhibitors of Plasmodium falciparum (CP250) proliferation (AID 504320); further: potency means the concentration at half of the fitted maximal effect;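 on activity change, negative = inhibition: plate controls were DMSO vehicle for no effect and 0.29 µM artemisinin control for full effect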; settings: P. falciparum CP250 in erythrocytes, SYBR Green DNA, 72 h; series mostly up to 6.7 µM
Summary of the method: as §1

[7] = qHTS Assay for Identification of Small Molecule Agonists for Hypoxia Response Element Signaling Pathway (AID 914; active means well fitted activation curve with a large enough effect in the signal ratio, with a control signal flat, not every such curve was filed as active; inconclusive means small, poorly fitted or top-dose-only effect, or effect the other way, or a change in a side signal; the % refers to the signal ratio; further: top concentration of the series differs between compounds; % of control where 0% means no effect); settings: ME-180 (cervical carcinoma) HRE-bla reporter, beta-lactamase ratio, CoCl2, 17 h; activation: stronger effect = higher value
Summary of the method: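 AC50 values come from titration-series %Activity, taken as the 460/530nm ratio of CCF4 fluorescence (excitation 405nm). CellSensor HRE-bla ME-180 cells were treated 17 hours at 37 C with compound plus an EC50 level of CoCl2.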
Tags describe the fitted curve by direction and shape.

UniProt P11712, sequence (P11712 whole entry, looked up): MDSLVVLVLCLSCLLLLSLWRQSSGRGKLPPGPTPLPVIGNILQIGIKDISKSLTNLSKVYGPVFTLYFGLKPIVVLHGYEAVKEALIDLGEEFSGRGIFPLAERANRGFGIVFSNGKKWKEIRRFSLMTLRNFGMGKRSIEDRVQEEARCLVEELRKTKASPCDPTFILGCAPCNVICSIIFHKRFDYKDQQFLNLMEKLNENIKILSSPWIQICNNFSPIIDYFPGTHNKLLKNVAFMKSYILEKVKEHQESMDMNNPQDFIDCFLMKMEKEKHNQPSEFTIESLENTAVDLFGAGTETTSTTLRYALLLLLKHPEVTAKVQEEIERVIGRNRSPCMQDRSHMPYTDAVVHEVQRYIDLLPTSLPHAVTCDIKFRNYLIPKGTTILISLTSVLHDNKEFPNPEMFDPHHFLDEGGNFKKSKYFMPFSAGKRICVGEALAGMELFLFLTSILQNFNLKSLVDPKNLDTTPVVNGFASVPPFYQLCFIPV
UniProt P33261, sequence (P33261 whole entry, looked up): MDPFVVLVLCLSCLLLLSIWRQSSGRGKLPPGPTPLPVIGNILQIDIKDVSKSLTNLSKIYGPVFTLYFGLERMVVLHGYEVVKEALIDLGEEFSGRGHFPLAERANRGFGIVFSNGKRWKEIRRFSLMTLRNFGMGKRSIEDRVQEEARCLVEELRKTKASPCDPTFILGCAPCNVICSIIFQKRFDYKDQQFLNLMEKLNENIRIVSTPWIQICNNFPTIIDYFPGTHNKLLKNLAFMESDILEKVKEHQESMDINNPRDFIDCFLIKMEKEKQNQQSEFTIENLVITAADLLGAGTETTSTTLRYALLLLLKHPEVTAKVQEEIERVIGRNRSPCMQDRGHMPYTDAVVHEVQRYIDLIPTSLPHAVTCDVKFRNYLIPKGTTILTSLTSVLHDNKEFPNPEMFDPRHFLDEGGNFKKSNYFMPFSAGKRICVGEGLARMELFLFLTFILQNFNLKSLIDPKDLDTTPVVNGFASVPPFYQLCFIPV

Structure (SMILES): CC(C)[C@@H](OCc1ccccc1)[C@H](C)C=NOC[C@@H](O)COCc1ccco1
- Potency [1]: inactive
- Potency [2]: inactive

Structure (SMILES): CCOC(=O)CN1C(=O)N[C@@H](c2ccco2)C(C(=O)OC)=C1C
- Potency [1]: inactive
- Potency [2]: inactive

Structure (SMILES): CC(C)(C(O)c1ccc([N+](=O)[O-])cc1)[N+](=O)[O-] (stereo unspecified)
- Potency [1]: inconclusive: 95.3 nM [activator, full curve, poor fit]
- Potency [2]: inactive

Structure (SMILES): Cc1ccc(S(=O)(=O)n2c3ccccc3c3nnc(C(=O)c4ccccc4)nc32)cc1
- Potency [3]: inconclusive: 3160 nM [inhibitor, partial curve, poor fit]
- Potency [4]: inconclusive: 12.6 nM [inhibitor, full curve, poor fit]
- Potency [1]: inactive

Structure (SMILES): CCCCC1=CC2=CC(=O)C(C)(OC(=O)CC)C(=O)C2=CN1c1ccccc1 (stereo unspecified)
- Potency [1]: inactive
- Potency [2]: inactive

Structure (SMILES): COC(=O)N[C@@H](c1ccc(Cl)cc1)C(C(C)=O)C(=O)OC (stereo partly specified)
- Potency [5]: inconclusive: 0.0005 µM [activator]

Structure (SMILES): CC(=O)C1=C(C)N(Cc2ccccc2)C(=O)N[C@H]1c1cccc(F)c1
- Potency [1]: inactive
- Potency [6]: inactive

Structure (SMILES): C=C(C)C(=O)OC[C@H]1CN2[C@H](c3ccc(Br)cc3)[C@H](C)CC[C@H]2C(=O)O1
- Potency [1]: inconclusive: 4260 nM [inhibitor, single point]
- Potency [2]: inconclusive: 2.94 µM [inhibitor, single point]
- Potency [6]: active: 1510 nM

Structure (SMILES): CCOC(=O)C1=C(CCl)NC(=O)N(C(C)=O)C1c1ccccc1 (stereo unspecified)
- Potency [1]: inconclusive: 3010 nM [inhibitor, single point]
- Potency [2]: inactive
- Potency [6]: inactive

Structure (SMILES): C[C@@H]1CC[C@H]2C(=O)O[C@H](CN=[N+]=[N-])CN2[C@@H]1c1ccc(Br)cc1
- activation [7]: inactive: 9.69%
- Potency [1]: inactive
- Potency [6]: inactive

Structure (SMILES): COC1=C[C@H](C(=O)NCCNC(C)=O)[C@@]2(C)Cc3ccccc3[C@@H]2CC1=O
- Potency [1]: inconclusive: 13.5 nM [inhibitor, partial curve, poor fit]
- Potency [6]: inactive

Structure (SMILES): C=CCN1c2ccccc2[C@]23C[C@@H](C(=O)OC)N(S(=O)(=O)CCCC)C2=NC(C(=O)OC)=C(C(=O)OC)[C@H]13
- Potency [5]: inconclusive: 4.26 µM [inhibitor, partial curve, poor fit]

Structure (SMILES): C=CC1=C2C=C(C3CC3)N(C(CO)CO)C=C2C(=O)C(C)(OC(=O)c2ccco2)C1=O (stereo unspecified)
- Potency [5]: inactive

Structure (SMILES): CC#CCN1c2ccccc2[C@]23C[C@@H](C(=O)OC)N(C(=O)OCC)C2=NC(C(=O)OC)=C(C(=O)OC)[C@H]13
- Potency [5]: inconclusive: 1.69 µM [inhibitor, partial curve, poor fit]

Structure (SMILES): COCCN1C(=O)NC(c2ccc(Br)cc2)C(C(C)=O)=C1C (stereo unspecified)
- Potency [5]: inconclusive: 4.26 µM [inhibitor, single point]
- Potency [2]: inactive

Structure (SMILES): C=CCN1C(=O)CC[C@@]23C1=NC(C(=O)OC)=C(C(=O)OC)[C@@H]2N(CC#CC)c1ccccc13
- Potency [5]: inconclusive: 1.9 µM [inhibitor, single point]
- Potency [2]: inconclusive: 3.98 µM [inhibitor, single point]

Structure (SMILES): CC12C=C(C=Cc3ccc(C(F)(F)F)cc3)C(C)(C1)C(c1ccc(C(F)(F)F)cc1)CC2=O (stereo unspecified)
- Potency [5]: inconclusive: 1.9 µM [inhibitor, single point]
- Potency [2]: inconclusive: 1.31 µM [inhibitor, partial curve]

Structure (SMILES): CCN(CC)CCCN=C1NC(c2cccc(C(F)(F)F)c2)C(C(=O)OC)=C(C)N1CC (stereo unspecified)
- Potency [5]: inconclusive: 953 nM [inhibitor, single point] and inactive
- Potency [2]: inactive

Structure (SMILES): CCOC(=O)CNC(=O)O[C@H]1C(=O)c2ccc(OC)cc2O[C@@H]1c1ccc2c(c1)OCO2
- Potency [5]: inactive
- Potency [2]: inactive

Structure (SMILES): CCCCS(=O)(=O)N1C2=NC(C(=O)OC)=C(C(=O)OC)[C@@H]3Nc4ccccc4[C@]23C[C@H]1C(=O)OC
- Potency [5]: inconclusive: 2.39 µM [inhibitor, single point]
- Potency [2]: inconclusive: 4.26 µM [inhibitor, single point]

Structure (SMILES): COC(=O)N[C@H](C[N+](=O)[O-])c1cccc(C)c1
- Potency [5]: inconclusive: 4.26 µM [inhibitor, single point]
- Potency [2]: inactive

Structure (SMILES): CCCCc1nc2c(c3c1C[C@H](C)OC3)CN(C(=O)N[C@H](C(=O)OC)C(C)C)CC2
- Potency [5]: active: 1.35 µM
- Potency [2]: inconclusive: 1.51 µM [inhibitor, partial curve]
- Potency [6]: inconclusive: 0.5 nM [activator]

Structure (SMILES): Cc1cc(C)c(-c2cc([C@H](C)ON=C[C@@H](C)[C@H](OCc3ccccc3)C(C)C)on2)c(C)c1
- Potency [5]: inconclusive: 1.51 µM [inhibitor, single point]
- Potency [2]: inactive

Structure (SMILES): C[C@H]1Cc2c(COc3ccccc3)nc3c(c2CO1)CN(C(=O)C1CC1)CC3
- Potency [5]: inactive
- Potency [2]: inconclusive: 2.39 µM [inhibitor, single point] and inconclusive: 2.13 µM [inhibitor, partial curve, poor fit]

Structure (SMILES): OC[C@H]1O[C@H](C#Cc2ccccc2)C=C[C@@H]1O
- Potency [5]: inactive
- Potency [2]: inactive
